Data from publication PMC6919601, “Identification of Plasmodium dipeptidyl aminopeptidase allosteric inhibitors by high throughput screening” (PLoS ONE, 2019).
About 230 (0.21%) of roughly 110,000 compounds showed an effect of 50% or more. The list shows a part of the results.
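Also: 30 min substrate incubation versus DMSO and 10 µM JCP410 controls.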

These compounds were tested against DPAP1 (Plasmodium falciparum, UniProt Q8IIJ9) (assay: primary screen, percent inhibition; read by cleavage of a fluorogenic dipeptide substrate; higher = more effect of the substance).
DPAP1, sequence (Q8IIJ9 whole entry, looked up): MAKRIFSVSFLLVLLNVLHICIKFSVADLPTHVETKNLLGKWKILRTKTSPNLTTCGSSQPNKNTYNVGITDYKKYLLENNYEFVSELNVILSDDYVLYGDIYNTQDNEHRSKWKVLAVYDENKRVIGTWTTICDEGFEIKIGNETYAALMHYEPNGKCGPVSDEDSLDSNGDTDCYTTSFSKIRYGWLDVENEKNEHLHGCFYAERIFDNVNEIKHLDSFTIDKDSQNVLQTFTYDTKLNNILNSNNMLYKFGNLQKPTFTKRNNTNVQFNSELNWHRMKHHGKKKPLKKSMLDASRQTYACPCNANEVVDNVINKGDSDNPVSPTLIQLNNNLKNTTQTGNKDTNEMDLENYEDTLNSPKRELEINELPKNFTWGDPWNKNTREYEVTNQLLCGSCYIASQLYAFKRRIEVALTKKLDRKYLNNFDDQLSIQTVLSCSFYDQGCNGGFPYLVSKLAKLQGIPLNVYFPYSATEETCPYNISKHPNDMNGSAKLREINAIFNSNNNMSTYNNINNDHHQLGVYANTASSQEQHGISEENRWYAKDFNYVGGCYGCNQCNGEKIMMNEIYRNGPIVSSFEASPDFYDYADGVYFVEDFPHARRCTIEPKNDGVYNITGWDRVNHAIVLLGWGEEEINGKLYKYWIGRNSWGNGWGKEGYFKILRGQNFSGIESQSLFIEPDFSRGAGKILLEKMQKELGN
Design: species or system P. falciparum D10 trophozoite lysates; single well
With CCCCCCCCCn1nc(C)cc1C the “% Inhibition @ 10 uM” value was -0.0372%. In the case of Cc1cccn2c(=O)c3cc(C(=O)NCc4ccccc4)c(=N)n(CC4CCCO4)c3nc12 (centres unmarked), the “% Inhibition @ 10 uM” value is reported as 5.17%. In the case of Cc1ccc(OCC(=O)N2CCN(C(=O)COc3ccc(C)cc3)CC2)cc1, the “% Inhibition @ 10 uM” value is reported as -4.68%. With c1ccc2[nH]c(CCSCCc3nc4ccccc4[nH]3)nc2c1 the “% Inhibition @ 10 uM” value was 1.21%. For CC[C@H](NC(=O)[C@H](CS(=O)(=O)Cc1ccccc1)NC(=O)N1CCOCC1)C(=O)c1nc2ccccc2[nH]1, the “% Inhibition @ 10 uM” value was -6.98%. With COc1ccc(C2C(C(=O)c3ccccc3)=C(O)C(=O)N2CCCN(C)C)c(OC)c1 (centres unmarked) the “% Inhibition @ 10 uM” value was -1.25%. CC(C)CC(=O)N1c2ccccc2N=C2CC(C)(C)CC(O)=C2C1c1ccc2c(c1)OCO2 (centres unmarked) was tested, and the “% Inhibition @ 10 uM” value was -2.77%. CCc1nc2nc(C)cc(O)n2n1 was tested, and the “% Inhibition @ 10 uM” value was -0.414%. For CC1CCN(C(=O)c2ccc3c(c2)sc2nc(-c4ccc(F)cc4)cn23)CC1, the “% Inhibition @ 10 uM” value was 25.2%. For CCCn1c(=O)c2sccc2n2c(CCCC(=O)N3CCC(C(N)=O)CC3)nnc12, the “% Inhibition @ 10 uM” value was -5.35%. With COC(=O)CCCC(NC(=O)OCc1ccccc1)C(=O)NCC#N (centres unmarked) the “% Inhibition @ 10 uM” value was -0.214%. For CCCCCCCCOc1ccc(/C=C(\C#N)c2nc(-c3ccc(Br)cc3)cs2)cc1, the “% Inhibition @ 10 uM” value was 2.54%. For Cc1nc2sc(C(c3ccc(C(C)C)cc3)N3CCN(C)CC3)c(O)n2n1 (centres unmarked), the “% Inhibition @ 10 uM” value was -6.62%. With CCOC(=O)N1CCN(C(=O)C2c3cc(OC)c(OC)cc3C(=O)N(C)C2c2cccs2)CC1 (centres unmarked) the “% Inhibition @ 10 uM” value was -0.503%. In the case of CCSC1=NSC2=NC(=O)/C(=C\c3ccc(Cl)cc3)C(=N)N12, the “% Inhibition @ 10 uM” value is reported as -3.79%. CC(NC(=O)CCCn1c2ccccc2c2cnnc(O)c21)c1ccccc1 (centres unmarked) was tested, and the “% Inhibition @ 10 uM” value was 4.55%. In the case of CC(C)(C)c1ccc(C(=O)Nc2cccnc2Cl)cc1, the “% Inhibition @ 10 uM” value is reported as -0.318%. CCC(C)(C)NS(=O)(=O)c1cccs1 was tested, and the “% Inhibition @ 10 uM” value was 2.01%. With Cc1nnc(NC(=O)CSc2nnc(Cc3cccn3C)n2CCc2ccccc2)s1 the “% Inhibition @ 10 uM” value was -7.65%. CCNc1nc(C)cc(OC(F)F)n1 was tested, and the “% Inhibition @ 10 uM” value was -4.75%. CC(C)c1ccc(/C=C2\N=C(c3ccccc3F)OC2=O)cc1 was tested, and the “% Inhibition @ 10 uM” value was 4.54%. In the case of Cc1cccc(OCCCCCN2CCOCC2)c1C, the “% Inhibition @ 10 uM” value is reported as 1.13%. For CS(=O)(=O)CCC(C(=O)O)N1C(=O)c2ccc(Oc3ccc(Cl)cc3)cc2C1=O (centres unmarked), the “% Inhibition @ 10 uM” value was 6.3%. For COc1ccc(C(O)(c2ccccc2)c2ccccc2)cc1, the “% Inhibition @ 10 uM” value was 2.45%. In the case of COc1ccc(N(C)C(=O)c2cc(F)c(Cl)nc2Cl)cc1, the “% Inhibition @ 10 uM” value is reported as 0.907%. COc1ccc(Cn2c(C(=O)O)c(CNCc3cc(OC)ccc3OC)c3ccc(OC)cc32)cc1 was tested, and the “% Inhibition @ 10 uM” value was 1.53%. With c1ccc(Cc2nc(-c3cccnc3)no2)cc1 the “% Inhibition @ 10 uM” value was -4.14%. With CCOC(=O)c1c(C)nc(C)c(C(=O)OCC)c1-c1ccc(Cl)cc1 the “% Inhibition @ 10 uM” value was -2.91%. With CC1CCN(C(=O)Cc2noc3ccccc23)CC1 the “% Inhibition @ 10 uM” value was 9.85%. With CC1(C)CC(=O)C(C(C2=C(O)CC(C)(C)CC2=O)c2ccccc2[N+](=O)[O-])C(=O)C1 (centres unmarked) the “% Inhibition @ 10 uM” value was -5.38%. With Cc1ccc(-n2nnnc2Cc2ccccc2F)cc1Cl the “% Inhibition @ 10 uM” value was 5.45%. In the case of Cc1ccc2c(Cl)c(C(=O)Nc3ccc(C(N)=O)cc3)sc2c1, the “% Inhibition @ 10 uM” value is reported as -4.65%. With Cc1ccc(NC(=O)C2CCCN(c3ncnc4onc(C)c34)C2)nc1 (centres unmarked) the “% Inhibition @ 10 uM” value was 4.03%. In the case of CCCN1CCC(NCC(c2ccccc2)c2ccccc2)CC1, the “% Inhibition @ 10 uM” value is reported as -3.35%. CC1CN(Cc2ccc([N+](=O)[O-])cc2)CC(C)O1 (centres unmarked) was tested, and the “% Inhibition @ 10 uM” value was -0.636%. COc1ccc2cc(C(=O)NCC(=O)O)sc(=O)c2c1OC was tested, and the “% Inhibition @ 10 uM” value was -5.4%. For C1CCN(CC2COC3(CCCCC3)O2)CC1 (centres unmarked), the “% Inhibition @ 10 uM” value was -3.65%. For Cc1nc(-c2ccc(C(=O)Nc3ccc(C)c(Cl)c3)cc2)cs1, the “% Inhibition @ 10 uM” value was 0.361%. N#CC1=C(N)Oc2[nH]nc(-c3cccc4ccccc34)c2C1c1ccc(OCC(N)=O)cc1 (centres unmarked) was tested, and the “% Inhibition @ 10 uM” value was -0.994%. In the case of CCOC(=O)c1c(C)[nH]c(C)c1S(=O)(=O)NCC(=O)N1CCC(c2ccccc2)C1 (centres unmarked), the “% Inhibition @ 10 uM” value is reported as 3.62%. For COc1ccc(/C=C/c2cc(C(F)(F)F)nc(O)n2)c(OC)c1, the “% Inhibition @ 10 uM” value was 1.29%. In the case of Cc1ccc(C(=O)C2=C(O)C(=O)N(CCN3CCOCC3)C2c2cccs2)cc1 (centres unmarked), the “% Inhibition @ 10 uM” value is reported as 1.64%. For COc1ccc(N2C(=O)CCC2(C#N)c2ccc(Br)cc2)cc1 (centres unmarked), the “% Inhibition @ 10 uM” value was -1.59%. For COc1cc(C2C(C#N)=C(N)Oc3c(O)nc(O)nc32)cc(OC)c1OC (centres unmarked), the “% Inhibition @ 10 uM” value was -1.29%. CCC(c1ccccc1)c1nc(-c2ccc(OC)cc2)no1 (centres unmarked) was tested, and the “% Inhibition @ 10 uM” value was -2.92%. CN1CCN(CC(O)COCc2ccccc2)CC1 (centres unmarked) was tested, and the “% Inhibition @ 10 uM” value was 1.24%. In the case of O=C(CNS(=O)(=O)c1ccccc1)Nc1ccc(Br)cc1F, the “% Inhibition @ 10 uM” value is reported as -5.51%. CCC(Sc1nc2nnc(C)c-2c(N)n1-c1ccc(C)c(Cl)c1)C(=O)NCc1ccco1 (centres unmarked) was tested, and the “% Inhibition @ 10 uM” value was -2.17%. In the case of O=C(Nc1cccnc1)c1cnn2c(C(F)(F)F)cc(-c3cccs3)nc12, the “% Inhibition @ 10 uM” value is reported as -3.65%. For CCOC(=O)c1c(NC(=O)CSc2nnc(-c3ccncc3)n2CC)sc2c1CCCC2, the “% Inhibition @ 10 uM” value was 3.75%. In the case of O=c1cc(-c2cc(Br)cc3c2OCOC3)oc2ccccc12, the “% Inhibition @ 10 uM” value is reported as 3.93%. In the case of CCOc1ccc2nc(N3CCC(C(=O)NCCc4c[nH]c5ccccc45)CC3)sc2c1, the “% Inhibition @ 10 uM” value is reported as 1.8%. In the case of CCn1cc(/C=C(\NC(=O)c2ccccc2F)C(=O)NC(C)C)c2ccccc21, the “% Inhibition @ 10 uM” value is reported as 1.64%. For NC1=NC(=O)/C(=C/c2ccc(OCC(=O)O)cc2)S1, the “% Inhibition @ 10 uM” value was -0.467%. For Cc1ccc(/C=C/c2cc(=O)n3ccsc3n2)cc1, the “% Inhibition @ 10 uM” value was -0.0709%. For COc1ccccc1C(=O)Nc1nc2c(Cl)cccc2s1, the “% Inhibition @ 10 uM” value was -1.28%. In the case of O=C(Nc1ccc(S(=O)(=O)Nc2nccs2)cc1)C(c1ccccc1)c1ccccc1, the “% Inhibition @ 10 uM” value is reported as -3.95%. In the case of CC12C=CC(O1)C1C(=O)N(c3ccc(F)cc3)C(=O)C12 (centres unmarked), the “% Inhibition @ 10 uM” value is reported as 0.545%. In the case of Cc1cccc(C(=O)Nc2sc(C)c(C)c2C(=O)O)c1, the “% Inhibition @ 10 uM” value is reported as 0.35%. With CCn1cc(C(=O)Nc2ccc(S(=O)(=O)NC34CC5CC(CC(C5)C3)C4)cc2)cn1 the “% Inhibition @ 10 uM” value was 25.6%. For O=C(CSCc1cnn(-c2ccccc2)c1-n1cccc1)NCc1ccccn1, the “% Inhibition @ 10 uM” value was -1.08%. With CC(=O)Nc1ccc(-c2cc(NC(C)=O)n(C)n2)cc1 the “% Inhibition @ 10 uM” value was -6.21%.
